# Reference: ChEMBL document CHEMBL4888484, “Replenishing the malaria drug discovery pipeline: Screening and hit evaluation of the MMV Hit Generation Library 1 (HGL1) against asexual blood stage Plasmodium falciparum ,using a nano luciferase reporter read-out” (2022)
# Among all 150,000 compounds or so, about 540 (0.36%) showed an effect of 50% or more. The list shows a part of the results.
# System: Plasmodium falciparum
# Experiment: Primary screen in NF54 nanoGlo assay, in single point, at 2uM, 72h; a lower Z score goes with more inhibition
# Type: functional, Erythrocyte
# Details: timepoint 72 hour
SMILES,% Inhibition,Z score
O=C1CCC(=O)N1C1CCC(NC2CC(c3ccccc3)C2)CC1 (configuration not stated),-5%,0.68
COc1cccc(CN[C@H]2[C@H](O)[C@@H](n3cccn3)[C@@H]3OC[C@H]2O3)c1,-9%,1.48
CCOc1cc(N(C)Cc2nc(C)cs2)ncn1,-2%,0.23
CC(=O)c1ccc(NC(=O)c2cc(-c3cccnc3)n(-c3ccc(C)cc3)n2)cc1,-4%,0.56
CCOC(=O)c1cccc(NC(=O)C2(N3CCOCC3)CCC2)c1,1%,-0.06
Cc1nn(-c2ccccc2)c2nc(Cc3ccccc3)nc(N3CCCN(C(=O)NC4CCCCC4)CC3)c12,21%,-4.11
CC1CCCCC1CNC(=O)C(O)C(O)c1nc2ccccc2s1 (configuration not stated),6%,-0.95
O=C(NCc1ccc(N2CCCCC2)nc1)c1cccc(Cl)c1,-7%,0.91
CCc1noc(-c2ccc3nnc(CC(=O)NCc4ccc(Cl)cc4)n3c2)n1,-7%,1.17
CCc1ccccc1C(=O)N1C[C@H]2C[C@H](C1)[C@@H]1CCCC(=O)N1C2,-8%,1.28
CCc1ncc(CN2CCC(CCC(=O)N(C)Cc3ccccc3)CC2)cn1,2%,-0.26
COc1cccc(CNC(=O)N2CCN(CC(F)(F)F)[C@@H](C)C2)n1,-2%,0.3
CC(C)N(CC(N)=O)CC(=O)N1CCOC2CCCCC21 (configuration not stated),17%,-2.12
CC(C)c1nnc([C@H](CC(=O)O)c2cccc(Cl)c2)o1,-8%,1.03
CN1CCN(c2ccc(-c3nc(CC(N)=O)n[nH]3)cc2)CC1,-8%,1.29
CC(C)[C@@H](NC(=O)C1CCC(F)(F)CC1)C(=O)O,-6%,0.83
Cc1nc2nc(C3CCCCC3)nn2c(C)c1CC(=O)N1CCOCC1,-6%,0.73
Cc1ccc(C[C@H](C)c2nc(CN3C(=O)NC(C)(C)C3=O)no2)cc1,-1%,0.14
CC(C#N)CN(C)S(=O)(=O)NCC1CCCOC1C(C)(C)C (configuration not stated),0%,-0.07
Cc1nc(C)c(C)c(N2C[C@@H]3[C@@H]4CC[C@@H](C4)[C@@H]3C2)n1,-5%,0.68
NC(=O)c1ccccc1NCc1cc(Cl)cc2c1OCOC2,-8%,0.73

SMILES,% Inhibition,Z score
Cc1cc2c(=O)n(CC(=O)N3CCN(c4ncccn4)CC3)cnc2cc1F,-1%,0.09
Cn1c(=O)c2c(nc(N3CCOCC3)n2C[C@H](O)c2ccccc2)n(C)c1=O,-11%,1.48
O=S(=O)(c1cccnc1)N1CCn2nc(C3CC3)cc2C1,-6%,0.66
COc1ccc(C(C)CN2CCOC(C3CCCO3)C2)cc1 (configuration not stated),-9%,0.95
O=C(N[C@@H](N1CCOCC1)C(Cl)(Cl)Cl)c1cccnc1,0%,0.02
CCn1cnnc1CCNC(=O)CCc1scnc1C,-8%,1.61
Cc1nc(-c2cccc(NC(=O)CCc3ccc(S(=O)(=O)N4CCCC4)cc3)c2)cs1,-29%,3.35
COc1ccc(S(=O)(=O)CCNC(=O)c2ccc(Nc3ncccn3)cc2)cc1,-11%,1.3
CN(Cc1cccs1)C(=O)Cc1cn(-c2ccccc2)nc1-c1ccc(Cl)cc1,-2%,0.24
Cc1nn([C@@H](C)CCNS(=O)(=O)c2cnn(C(F)F)c2)c(C)c1Cl,-10%,1.26
CCNC(=O)[C@@H]1CC[C@](C)(C(=O)NCc2c[nH]c(=O)[nH]c2=O)C1(C)C,-11%,1.22
CC(C)N(C)Cc1ccccc1CN[C@@H](C)c1ccc2c(c1)OCCCO2,-1%,0.15
O=S(=O)(NCc1ccccc1)Nc1ccc2cn[nH]c2c1,-9%,1.1
CC(C)CCC(=O)N1CCC[C@H](NS(C)(=O)=O)C1,-19%,1.96
NS(=O)(=O)c1sc(Cl)cc1C(=O)N1CC(COc2ccccc2)C1,0%,0.01
Cc1nnc(CN2CC[C@H](c3cccc(Oc4ccccc4)c3)C2)o1,-8%,0.69
O=C(CCc1cc(Cl)cs1)NO[C@@H]1CCCCO1,-15%,1.24
COCCC1(C(=O)NCc2csc(-c3ccn(C)n3)n2)CCCC1,-4%,0.78
Cn1nc(C2CC2)cc1N1CCN(C(=O)c2ccc3nsnc3c2)CC1,8%,-1.01
CC(=O)N[C@H]1[C@H](c2ccccc2)NCC[C@@]1(C)O,0%,-0.05
